Data reported in PubChem BioAssay AID588692 (Broad Institute, 2011).
Among all 360,000 compounds or so, about 830 (0.23%) were called active. Inconclusive means that the source gave no clear call. Such entries were picked first, then a sample of the others.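 How the source made its calls: active means mean luciferase reporter signal, scaled so untreated is 0 and the glycosylation-blocking control 100, at or above a set limit in every replicate; inconclusive means mean reaches the limit but not every replicate does; inactive means mean below the limit.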

Test: increase of ERlucT glycosylation luciferase signal, primary screen, N-linked glycosylation inhibitor project, D54 ERlucT cells, luminescence, set 2 (AID 588692);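 further: luciferase carries N-glycosylation sites so blocking glycosylation raises the light; 0% = median of neutral control wells and 100% = median of 100 nM tunicamycin wells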
Settings: 24 h, at 12.5 µM, active compounds read high, percent of 100 nM tunicamycin response

Reporter increase, inconclusive:
CCn1c2ccccc2c2cc(NC(=O)COC(=O)C3CCC(=O)N3)ccc21 (stereo not given) 26.7%
NC1=NC(c2ccc(Cl)cc2)C(C(=O)c2ccccc2)N1 (stereo not given) 26%
Cn1c(=O)n(C)c2cc(S(=O)(=O)N3CCCc4ccccc43)ccc21 28%
COc1ccccc1N1CCN(S(=O)(=O)CCNC(=O)c2cc(OC)c(OC)c(OC)c2)CC1 27.1%
COc1ccc(C=CC(=O)c2ccc(OC)c(OC)c2)cc1O 29.5%
Cc1nc([N+](=O)[O-])c(Br)n1Cc1ccc(Cl)c(Cl)c1 36.9%
CC(Nc1nc(-c2ccccc2)nc2ccccc12)c1ccccc1 (stereo not given) 26.5%
CN1CCN(C(=O)/C=C/c2ccc([N+](=O)[O-])o2)CC1 26%
O=C(Nc1ccccc1-c1ccccc1)C1CCCC1 26.5%
CCN1C(=O)c2cccc3c(S(=O)(=O)Nc4ccccc4O)ccc1c23 25.2%
COc1ccc(CNC(=O)c2cccc3c(-c4cccnc4)coc23)cc1OC 29.4%
CC(C)Nc1ccc(C(CC(N)=O)NC(=O)Cc2ccc(Br)cc2)cc1[N+](=O)[O-] (stereo not given) 35.4%
CCOc1cc(/C=C/C(=O)c2ccc(C)cc2)ccc1OCC(=O)N(C)C 33.7%
CCN(CC)CCNC(=O)C(Cl)=C1C(Cl)=C(Cl)C(Cl)=C1Cl 33.8%
CCC(Cc1ccccc1)NC(=O)c1ccc2nc(N3CCOCC3)sc2c1 (stereo not given) 25.5%
COc1ccc([C@H]2CC(=O)C=C(c3cc(C=O)ccc3OC)C2)cc1 29.3%
CCCC(=O)N1CCC1(C)C(=O)Nc1ccc2nc(C)ccc2c1 (stereo not given) 47%
CCOC(=O)/C(=C\c1cccc(O)c1)c1nc2sc(C)c(C)c2c(=O)[nH]1 28.3%
O=C(/C=C/c1ccccn1)c1cc(Cl)cc(Cl)c1O 31.7%
CSc1cccc(NC(=O)CCCOc2cc(=O)n(C)c3ccccc23)c1 25.9%
COC(=O)c1ccc(/C=C/C(=O)c2cccc(OC)c2)cc1 28%
COc1cccc2c3cccc(OC)c3c3[nH]cnc3c12 27.4%
CC(=O)Nc1ccc(CC(=O)NCCC(c2ccccc2)c2ccccc2)cc1 27.4%
CC1(C)CC(=O)/C(=C\c2cccc([N+](=O)[O-])c2)C(C)(C)N1 27.3%
CCOC(=O)c1ccc(N=c2sc(C(=O)OC)cc(=O)n2-c2ccc(C(=O)OCC)cc2)cc1 25.7%
CC1(C)Cc2nc3sc4c(=O)n(CC(=O)NCc5ccccc5)cnc4c3cc2CO1 26.3%
COC(=O)c1cc(=O)n(CCc2ccccc2F)c(=Nc2ccc(F)c(Cl)c2)s1 25.1%
Cc1nc2ccccc2c(N)c1C(=O)/C=C/c1ccccc1 32%

Reporter increase, inactive:
CCOC(=O)CSC1=NC(=O)/C(=C/c2ccc(Br)cc2)S1 4.56%
COc1ccc(-c2ccc3ccccc3n2)cc1OC -3.69%
Nc1ccc(NC(=S)Nc2ccccc2)cc1 2.37%
S=C(NCc1ccco1)N1CCN(c2ccccc2Cl)CC1 -3.92%
CC(C)(C)NC(=O)C(Cc1ccccc1)NS(=O)(=O)c1ccc2c(c1)CCC(=O)N2 (stereo not given) 2.5%
C#CCOCCOCCOCCNc1nc(N2CCN(C(=O)[C@H]([C@@H](C)CC)n3cc([C@@H](N)CC(C)C)nn3)CC2)nc(N2CCN(C(=O)[C@H](CCCCN)n3cc([C@@H](N)C(C)CC)nn3)CC2)n1 (stereo not given in full) 1.36%
c1coc(CNCCCN2CCOCC2)c1 0.937%
COc1ccc(CCN2C(=O)CS/C2=N\NC(=O)c2ccc(C(C)(C)C)cc2)cc1OC 5.57%
S=C1NC2(CCCCC2)NN1c1ccccc1 3.22%
CCOC(=O)c1c(NC(=O)CN2C(=O)NC3(CCCCC3C)C2=O)sc(C)c1C (stereo not given) 6.56%
CN(C(=O)COC(=O)c1ccc([N+](=O)[O-])cc1Cl)C1CCCCC1 0.567%
O=c1c(O[C@H]2O[C@@H](CO)[C@H](O)[C@@H](O)[C@@H]2O)c(-c2ccc(O)cc2)oc2cc(O)cc(O)c12 1.47%
CCOC(=O)c1sc(NC(=O)c2ccc(C)o2)nc1C -3.13%
CCOC(=O)c1ccc(N2Cc3ccccc3C2)cc1O -0.525%
CC(=O)Nc1ccccc1N(CC(O)Cn1c2ccccc2c2ccccc21)S(=O)(=O)c1ccc(C)cc1 (stereo not given) -6.84%
CCOC(=O)c1cc2c(=O)n3ccccc3nc2n(CCCOC)c1=NC(=O)c1ccncc1 -0.75%
COc1cc(C(=O)NNC(=O)c2ccc3c(c2)OCCO3)cc(OC)c1OC -0.234%

Reporter increase, active:
COc1cc2c(cc1OC)C(c1cccs1)N(C(=S)NC(C)C)CC2 (stereo not given) 44.7%
S=C1NC2=C(CCCC2=C2SCCS2)C(c2ccccc2)N1 (stereo not given) 415%
Cc1cccn2c(=O)c3cc(C(=O)NC4CCCC4)c(=N)n(CCc4ccccc4)c3nc12 29.9%
N#Cc1c(NCCN)nc(-c2ccco2)c2c1CCCC2 32.9%
Cc1cc(C(=O)N/N=C/c2c3ccccc3cc3ccccc23)n[nH]1 45.3%
O=C(Nc1ccccc1N1CCOCC1)c1ccc2nc[nH]c2c1 26.6%
CC(C)(C)c1nnc2sc(SCC(=O)c3ccc4c(c3)OCCO4)nn2c1=O 39.8%
Cc1ccc(C)c(OCC(O)CN2CCN(CCN3C(=O)c4cccc5cccc(c45)C3=O)CC2)c1 (stereo not given) 57%
COc1cccc(/C=C2\SC(=S)N(CCC(=O)N3CCCCC3)C2=O)c1 39%
O=[N+]([O-])c1ccc(Sc2cc[n+]([O-])c3ccccc23)c([N+](=O)[O-])c1 28.4%
